Reference: PubChem BioAssay AID1346428 (National Center for Advancing Translational Sciences (NCATS), 2018)
Where “and” joins values, the source holds several entries; their conditions need not be identical. Equal values may be shown once. The whole screen tested about 48,000 compounds, of which about 1,200 (2.5%) were called active. About 2% were inconclusive and are not listed.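 How the source made its calls: active means activation of at least 60% and not above a set upper limit (about 1 call in 100 departs from these limits); inconclusive means activation of 40% to 60%, or above that upper limit; inactive means activation under 40%.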 The list shows a part of the results.

target: Probable G-protein coupled receptor 32 (Homo sapiens) (UniProt O75388); assay: qHTS for Agonists of Human Resolvin D1 Receptor DRV1; conditions: CHO-K1 GPR32 beta-arrestin PathHunter luminescence, 90 min; at 76.9 µM; hits give high values; zero percent set by DMSO-only wells; further: 0% is about no effect
Sequence of UniProt O75388 (O75388 whole entry, looked up, the tested form may be a part): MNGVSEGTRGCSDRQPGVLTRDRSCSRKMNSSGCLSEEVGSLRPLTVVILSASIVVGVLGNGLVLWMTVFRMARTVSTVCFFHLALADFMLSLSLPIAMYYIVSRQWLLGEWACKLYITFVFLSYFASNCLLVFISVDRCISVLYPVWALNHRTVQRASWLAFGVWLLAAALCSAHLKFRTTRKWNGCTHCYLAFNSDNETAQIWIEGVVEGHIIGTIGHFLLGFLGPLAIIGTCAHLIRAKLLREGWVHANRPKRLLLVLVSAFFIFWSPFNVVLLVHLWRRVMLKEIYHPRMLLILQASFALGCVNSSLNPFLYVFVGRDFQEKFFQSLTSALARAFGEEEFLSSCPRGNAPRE
Method in brief: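 PathHunter enzyme-fragment complementation, CHO-K1 GPR32 stable line; 2,500 cells/well, overnight attach; cpd 90 min 37 °C 5% CO2; detection reagent 1 h RT; chemiluminescence. DMSO = EC0.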

| Structure (SMILES) | activation |
| --- | --- |
| Clc1cccc(CNc2ncnc3c2nc2n3CCCC2)c1 | inactive: -4.44% |
| COc1ccc(-n2ncc3c(N4CCN(c5cccc(C)c5)C(C)C4)ncnc32)cc1 (stereo not given) | inactive: 30% |
| Cc1nnc(SCc2cc(=O)n3c(C)cccc3n2)s1 | inactive: -17.6% |
| O=C(C1CCC(CNS(=O)(=O)c2ccc(Br)s2)CC1)N1CCN(c2ccccc2)CC1 (stereo not given) | inactive: 17.4% |
| O=C1C(=O)c2ccccc2C(O)=C1C1CCC(c2ccc(Cl)cc2)CC1 (stereo not given) | inactive: 22.9% |
| Cc1ccc(-c2noc(COc3ccc(Br)c(C)c3)n2)cc1 | inactive: 6.62% |
| COc1ccc(Cl)cc1NC(=O)CCc1nc(-c2ccccc2F)no1 | inactive: -0.548% |
| NS(=O)(=O)c1ccc(NC(=O)CCn2c(=O)oc3ccccc32)cc1 | inactive: -4.79% |
| Cc1c(C(=O)N2CCCC2)oc2c1-c1nn(CC(=O)NCc3cccc(Br)c3)cc1CC2 | inactive: -16.9% |
| O=C(Cn1c(=O)n(Cc2ccc3c(c2)OCO3)c(=O)c2ccccc21)Nc1cccc(Cl)c1 | inactive: -27.3% |
| Cc1ccc(-n2nnc3c(sc4nc(C)c(C)cc43)c2=O)cc1Cl | inactive: -1.43% |
| COc1ccc(CSc2nc3ncccc3[nH]2)cc1 | inactive: 9.12% |
| Cc1ccc(C)c(NC(=O)C2CCCN(S(=O)(=O)c3c(C)noc3/C=C/N(C)C)C2)c1 (stereo not given) | inactive: -22.4% |
| Cn1c(=O)oc2cc(S(=O)(=O)CCC(=O)NCc3ccccc3)ccc21 | inactive: 12.1% |
| CCOc1ccc(N(C)S(=O)(=O)c2ccc3c(c2)C(C)(C)C(=O)N3C)cc1 | inactive: 29.6% |
| CCOc1ccc(N2CC(c3nc(-c4cc(OC)c(OC)c(OC)c4)no3)CC2=O)cc1 (stereo not given) | inactive: -18.6% |
| O=C(NC1CCCC1)c1c[nH]c2ccc(S(=O)(=O)Nc3cccc(C(F)(F)F)c3)cc2c1=O | active: 82.3% |
| COc1cccc(N2CC(NC(=O)c3ccc(S(=O)(=O)N4CCCC4)cc3)CC2=O)c1 (stereo not given) | inactive: -6.67% |
| COc1ccc(-c2nc3n(n2)C(c2ccc(OC)cc2)C(C(=O)Nc2cccnc2)=C(C)N3)cc1 (stereo not given) | inactive: -19.1% |
| CCOC(=O)c1[nH]c(C)c(CCC(=O)N2CCN(c3ccccc3)CC2)c1C | inactive: -17.7% |
| COCCNC(=O)C1CCN(S(=O)(=O)c2ccc3c(c2)CCCN3C(C)=O)CC1 | inactive: 13.9% |
| CCN(c1ccccc1)S(=O)(=O)c1nnc(NC(=O)COc2ccc(OC)cc2)s1 | inactive: -3.21% |

| Structure (SMILES) | activation |
| --- | --- |
| CCOC(=O)c1c(C)oc2nc(C)nc(NCC3CCN(Cc4ccc(Cl)cc4)CC3)c12 | inactive: -8.35% |
| CC(=O)OCC#CCSc1nnc(-c2cccc(Br)c2)o1 | inactive: -6.05% |
| Cc1ccccc1CNC(=O)C(C)n1nc(C)n2c(cc3occc32)c1=O (stereo not given) | inactive: -17.9% |
| Cc1ccc(NC(=O)CN2C(=O)CCSc3ccc(S(=O)(=O)N4CCCC4)cc32)cc1 | inactive: -10.6% |
| COc1ccc(NC(=O)C2=CC(c3cccs3)=NS(=O)(=O)N2C)cc1 | inactive: -21.7% |
| COc1ccc(CC(=O)Nc2nc3c(s2)CC(C(C)(C)C)CC3)cc1 (stereo not given) | inactive: -30.6% |
| CCn1c(CNC(=O)c2ccc(OC)cc2)nnc1SCC(=O)Nc1ccc(OC)cc1 | inactive: -2.74% |
| CC(C)=CCC[C@@](C)(O)[C@H]1CC=C(C)CC1 | inactive: -16.3% |
| CCc1ccc(-c2nc(CSCC(=O)NCc3ccccc3OC)c(C)o2)cc1 | inactive: -12.6% |
| Cc1ccc(-c2nc3c(c(SCC(=O)N4CCCCC4)n2)Cc2cc(C)ccc2O3)cc1 | inactive: -6.21% |
| CC(C)NC(=O)Nc1ccc2c(c1)N(C)C(=O)c1ccccc1S2 | inactive: 7.19% |
| COc1ccc(-c2nc3scc(CCNS(=O)(=O)c4ccc(F)cc4F)n3n2)cc1OC | inactive: -14.5% |
| Cc1nn(Cc2noc(C(=O)NCc3ccc(F)cc3)n2)c(C)c1Br | inactive: -17.8% |
| O=C(NCCc1ccccc1)c1ccc2c(c1)N(Cc1ccccc1Cl)C(=O)c1ccccc1S2 | inactive: -9.32% |
| CCOc1ccc(CC(=O)Nc2ccc3nc(N4CCCCC4)cc(C)c3c2)cc1OCC | inactive: -3.16% |
| CCOC(=O)c1cccc(NC(=O)CSc2ncc3c(n2)-c2ccccc2N(C)S3(=O)=O)c1 | inactive: -15.4% |
| COc1ccccc1CNC(=O)C(Cc1ccccc1)NS(=O)(=O)c1ccc2c(c1)oc(=O)n2C (stereo not given) | inactive: -0.262% |
| O=C1CC(c2nc3ccccc3n2CCCCOc2ccccc2)CN1c1ccccc1Cl (stereo not given) | inactive: 11.3% |
| CC1CCCCN1Cc1c(O)ccc2c(=O)c(-c3cccc(Cl)c3)c(C(F)(F)F)oc12 (stereo not given) | inactive: -11.7% |
| CCc1nnc(NC(=O)CSc2nc3c([nH]c4ccccc43)c(=O)n2-c2cc(C)cc(C)c2)s1 | inactive: 44.7% |
| CC1C(=O)N2CCCc3cc(S(=O)(=O)Nc4ccc(Br)cc4F)cc1c32 (stereo not given) | inactive: 10.5% |
| CCOc1cc(-c2nnc(SCC(=O)NCc3ccc(C)cc3)nc2-c2ccc(OC)c(OCC)c2)ccc1OC | inactive: -11.9% |

| Structure (SMILES) | activation |
| --- | --- |
| O=C(Cn1c(=O)oc2cc(S(=O)(=O)NCc3ccccc3)ccc21)N(CCO)Cc1ccccc1 | inactive: -6.88% |
| COc1ccc(OC)c(NC(=O)c2nc(SCc3ccccc3F)ncc2Cl)c1 | inactive: -12.8% |
| COc1cccc(NC(=O)C2CCCN2S(=O)(=O)c2ccc3c(c2)n(C)c(=O)c(=O)n3C)c1 (stereo not given) | inactive: -10.6% |
| CCc1cccc(-n2c(=O)c3cccnc3n2CC(=O)Nc2ccccc2C(=O)OC)c1 | inactive: -8.52% |
| CCC1CN(C(=O)Nc2cc(OC)cc(OC)c2)c2ccccc2S1 (stereo not given) | inactive: -20.4% |
| CCOc1ccc(NC(=O)c2ccc3nc(Cc4ccccc4)oc3c2)cc1 | inactive: -2.19% |
| Cc1ccc2oc(C(=O)Nc3sc4c(c3C(=O)NCc3ccccc3)CCCC4)cc(=O)c2c1 | inactive: -9.01% |
| COc1ccc(-n2nc3cc(C)c(NC(=O)c4ccc(C)cc4C)cc3n2)cc1Cl | inactive: -0.308% |
| Cc1ccc(OCC(=O)OCc2cc(=O)n3c(C)csc3n2)cc1 | inactive: 8.94% |
| Cc1ccccc1NC(=O)N1CCC(CN2CCCC2)CC1 | inactive: -13% |
| CCC(=O)N1CCc2cc(S(=O)(=O)NC(Cc3ccccc3)C(=O)NCc3ccc(F)cc3)ccc21 (stereo not given) | inactive: 2.83% |
| Nc1ccc(C(=O)OCC(O)CO)cc1 (stereo not given) | inactive: -2.69% |
| COc1cc(NC(=O)CSc2ccc(-c3sc(-c4ccccc4)nc3C)nn2)cc(OC)c1 | inactive: -17.4% |
| CCCc1cc(=O)[nH]c2nnc(SCCC(C)C)n12 | inactive: 29.8% |
| COC(=O)c1c(NC(=O)COc2ccc(OC)cc2)sc2c1CCC(C)C2 (stereo not given) | inactive: -2.84% |
| Cc1cc(C)cc(OCCSc2nc(-c3ccc(C(C)(C)C)cc3)nc3cc(=O)[nH]n23)c1 | inactive: 27.2% |
| CN1Cc2c(N)cccc2C(c2ccccc2)C1 (stereo not given) | inactive: 25.6% and inactive: -20% |
| NC(=O)NNc1ccccc1 | inactive: -14% |
| CC(C)Oc1ccc(CNC(=O)C2CCCN(S(=O)(=O)c3ccc4c(ccn4C)c3)C2)cc1 (stereo not given) | inactive: 2.58% |
| CCCn1cc(S(=O)(=O)c2ccc(OC)cc2)c(=O)c2cc(F)c(N3CCCCCC3)cc21 | inactive: -4.55% |
| Cc1ccc(CSc2nnc3[nH]c(=O)cc(C)n23)cc1 | inactive: 31% |
| CCn1cc(S(=O)(=O)c2ccc(C)cc2C)c(=O)c2cc(F)c(N3CCCC3)cc21 | inactive: -11.6% |

| Structure (SMILES) | activation |
| --- | --- |
| COc1ccc(CN2CCN(S(=O)(=O)c3ccccc3)CC2)c(OC)c1 | inactive: 15.2% |
| CCC(=O)N1c2ccccc2CC1C(=O)NCCc1ccc(OC)cc1OC (stereo not given) | inactive: 14.9% |
| CCCN1C(=O)C2(c3ccccc31)c1c(oc3cc(C)c(C)cc3c1=O)C(=O)N2CCCOC (stereo not given) | inactive: 12.2% |
| COc1cccc(CNC(=O)CCc2c(C)nn(-c3ccc(N4CCOCC4)nn3)c2C)c1 | inactive: 5.49% |
| COc1ccc(OC)c(NC(=O)[C@H](Cc2ccccc2)N2Cc3ccccc3C2=O)c1 | inactive: -14% |
| O=C(CC1C(=O)N(c2ccccc2)C(=O)N1CCc1cccs1)Nc1ccc(Cl)cc1 (stereo not given) | inactive: -1.39% |
| Cc1c(C(=O)Nc2cccc(C(F)(F)F)c2)oc2ccc(S(=O)(=O)N(C)C3CCCCC3)cc12 | inactive: -5.34% |
| CCNC(=O)c1ccc(-n2c(-c3ccccc3)cc3c2CCCCC3)cc1 | inactive: -18.8% |
| CCOC(=O)CNc1ncnc2c1nnn2C | inactive: -12.4% |
| CC(=O)Nc1nonc1-c1nnc(SCc2ccc(C)cc2)n1C | inactive: -23.7% |
| Cc1cccn2c(=O)c(/C=C(\C#N)c3nc4ccccc4n3C)c(Oc3ccc(Cl)cc3)nc12 | inactive: -30.2% |
| CCCc1cc(=O)[nH]c2nnc(SCC(=O)Nc3cccc(C)c3)n12 | inactive: 2.45% |
| CCCNC(=O)c1c2c(nc3ccccc13)C(=O)N(C1CCCCC1)C2 | inactive: 7.26% |
| COc1cccc(-c2cc(C(=O)Nc3ccc(F)cc3)[nH]n2)c1 | inactive: 38.4% |
| CC(C)(O)c1ccccc1CC[C@@H](SCC1(CC(=O)O)CC1)c1cccc(/C=C/c2ccc3ccc(Cl)cc3n2)c1 | inactive: 30.4% |
| Cc1cc(OCC(=O)Nc2ncn[nH]2)c(C)c(C)c1Br | inactive: 24.6% |
| Cc1cc(C)cc(N2C(=O)CS(=O)(=O)C23C(=O)N(Cc2ccccc2)c2ccccc23)c1 (stereo not given) | inactive: -5.36% |
| CCc1cc(=O)[nH]c(SCc2nc(-c3ccccc3C)no2)n1 | inactive: 28% |
| CCOC(=O)C1CCN(c2ncnc3c2c(-c2ccccc2)cn3-c2ccc(C)c(Cl)c2)CC1 | inactive: -6.24% |
